Laboratory results from patent US6830937 (Bristol-Myers Squibb, dated 2004).

Legend:
B7 antigen = target: T1, B7 antigen (UniProt P33681 35-288, limits assumed); assay: cell adhesion assay, 51Cr-labeled COS cells on CD28+ CHO monolayers, 10 mM EDTA
T1 construct: whole, on cells; Whole membrane protein on cells; also called B7/BB-1 antigen; ligand for CD28
T1 sequence (looked up): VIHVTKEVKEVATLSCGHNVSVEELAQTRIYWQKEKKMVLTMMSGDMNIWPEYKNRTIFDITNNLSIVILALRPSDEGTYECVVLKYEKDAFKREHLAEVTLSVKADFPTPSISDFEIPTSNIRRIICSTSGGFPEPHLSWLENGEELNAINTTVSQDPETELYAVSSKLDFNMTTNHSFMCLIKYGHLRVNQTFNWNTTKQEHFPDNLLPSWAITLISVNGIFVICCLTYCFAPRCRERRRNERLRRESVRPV

[1] = target: T2, CD5 (on transfected COS cells) (UniProt P06127 25-495, limits assumed); assay: adhesion of 51Cr-labeled transfected COS cells to CD28+ CHO cells
T2 construct: whole, on cells; Control transfectant in the CD28 adhesion assay
T2 sequence (looked up): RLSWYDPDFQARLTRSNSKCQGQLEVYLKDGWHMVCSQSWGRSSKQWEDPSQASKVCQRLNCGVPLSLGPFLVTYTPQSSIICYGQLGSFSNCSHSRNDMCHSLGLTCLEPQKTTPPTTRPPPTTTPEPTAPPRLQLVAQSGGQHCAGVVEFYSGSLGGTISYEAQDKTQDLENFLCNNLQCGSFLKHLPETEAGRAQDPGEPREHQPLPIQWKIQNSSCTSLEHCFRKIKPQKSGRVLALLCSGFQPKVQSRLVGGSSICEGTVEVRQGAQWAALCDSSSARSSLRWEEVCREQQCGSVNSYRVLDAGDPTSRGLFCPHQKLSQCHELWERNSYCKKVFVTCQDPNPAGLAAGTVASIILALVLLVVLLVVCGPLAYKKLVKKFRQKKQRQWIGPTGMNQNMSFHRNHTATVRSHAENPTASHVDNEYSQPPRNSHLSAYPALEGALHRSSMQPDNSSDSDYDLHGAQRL

[2] = target: T3, CD4 (on transfected COS cells) (UniProt P01730); assay: as above
T3 construct: whole, on cells; Control transfectant in the CD28 adhesion assay

- binding result (B7 antigen): binds
- binding result [1]: no binding
- binding result [2]: no binding
B1: CD28 receptor (receptor)
chain: not shown
notes: whole, on cells; also called CD28 antigen; CD28+ CHO cells
